# The campaign covered roughly 390,000 compounds. About 2,200 (0.56%) were called active. Inconclusive results, whose numbers are uncertain, are shown with a selection of clear calls. Calls follow the shape of the dose curve; as a rule, active = well fitted inhibition curve with a large enough effect; inconclusive = small, poorly fitted or top-dose-only effect; inactive = no such curve, though single readings can be large or run the other way. A potency beside an inconclusive call is a rough fit, not a confirmed value.
# Target: Chromobox protein homolog 1 (Homo sapiens) (UniProt P83916)
# Chain of UniProt P83916 (P83916 whole entry, looked up): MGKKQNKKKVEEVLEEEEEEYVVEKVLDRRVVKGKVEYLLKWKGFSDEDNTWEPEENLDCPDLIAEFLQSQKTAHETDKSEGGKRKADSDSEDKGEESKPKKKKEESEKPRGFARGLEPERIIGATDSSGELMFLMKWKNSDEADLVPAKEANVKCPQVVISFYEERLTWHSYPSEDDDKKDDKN
# Test: HTS for Inhibitors of HP1-beta Chromodomain Interactions with Methylated Histone Tails; also: nearly all actives have a fitted effect of over 70% in size
# Conditions: AlphaScreen HP1-beta / biotin-H3K9me3 peptide binding; series mostly up to 114 µM; activity change, negative = inhibition: at the top concentration
# Method in brief: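 HP1-beta protein (50 nM final) preincubated 30 min at room temperature with biotinylated H3(1-18)K9me3 peptide (50 nM) in PBS pH 7.4, 0.01% Tween-20, then compound added for 30 min. AlphaScreen streptavidin donor/nickel chelate acceptor beads (10 ug/mL final), 30 min dark, luminescence read.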
# Potency is read from the fitted curve at half-maximal effect; tags tell the direction and shape of the fitted curve.
Structure (SMILES),Potency,"activity change, negative = inhibition"
COc1ccc(NC(=S)N/N=C/c2cccn2Cc2ccc(F)cc2Cl)cc1,"inconclusive: 15.8 µM [inhibitor, full curve]",–
CCN(CC(=O)Nc1c(F)cccc1F)C(=O)Cc1ccc2c(c1)CCC2,"inconclusive: 28.2 µM [inhibitor, partial curve]",–
COCCN=c1scc(-c2ccccc2)n1/N=C/c1c[nH]c2ccccc12,"inconclusive: 14.1 µM [inhibitor, full curve]",–
COc1ccccc1C1=Nc2cccc3cccc(c23)N1,"inconclusive: 50.1 µM [inhibitor, partial curve]",–
O=[N+]([O-])c1ccc2c(c1)C(=NO)c1cc(F)ccc1-2,"inconclusive: 44.7 µM [inhibitor, partial curve]",–
CC1CCC(N2CCN(C(=O)c3ccccc3F)CC2)CC1 (stereo not drawn),"inconclusive: 15.8 µM [inhibitor, full curve]",–
COc1ccc(OC)c(S(=O)(=O)ON2C(=O)c3ccccc3C2=O)c1,"inconclusive: 25.1 µM [inhibitor, full curve]",–
CCC(C)NCCOc1cc(C)cc(C)c1C (stereo not drawn),"inconclusive: 35.5 µM [inhibitor, partial curve]",–
CCn1c(=O)n(CC)c2cc(N3CCCC3)c(NC(=O)c3cccc(Cl)c3)cc21,"inconclusive: 50.1 µM [inhibitor, partial curve]",–
CCCS(=O)(=O)N1CCCC(C(=O)c2ccccc2OC)C1 (stereo not drawn),–,inactive: 36%
CCc1cccc(C)c1N(C(=O)Cn1c(COC)nc2ccccc21)C(C)COC (stereo not drawn),"inconclusive: 39.8 µM [inhibitor, partial curve, poor fit]",–
CCOC(=O)c1c(-c2ccccc2Cl)csc1NC(=O)c1cc(S(=O)(=O)N2CCOCC2)ccc1C,"inconclusive: 22.4 µM [inhibitor, single point]",–
c1ccc(Nc2c(-c3ccco3)nc3ccccn23)cc1,–,inactive: -19.2%
CCc1ccccc1NC(=O)Cc1ccc(-n2cccc2)cc1,"inconclusive: 39.8 µM [inhibitor, single point]",–
Cc1cccc(N2CCN(C(=O)c3ccc4c(c3)NC(=O)C(CSCc3cccc(F)c3)N4)CC2C)c1 (stereo not drawn),"inconclusive: 79.4 µM [inhibitor, partial curve, poor fit]",–
CC(=O)N1CCN(CC(=O)Nc2c(Cl)cccc2Cl)CC1,"inconclusive: 20 µM [inhibitor, full curve, poor fit]",–
CCN(CC)c1ccc(S(=O)(=O)N2CCOCC2)cc1NC(=O)CSc1ccccc1,–,inactive: 6.81%
CN(CCOc1ccccc1Cl)Cc1ccccc1,"inconclusive: 15.8 µM [inhibitor, full curve, poor fit]",–
CS(=O)(=O)c1nc(-c2ccccc2)c(-c2ccccc2)[nH]1,–,inactive: 3.16%
Cc1ccc(-c2csc(N3CCN(CCCn4c(-c5ccncc5)nc5ccccc54)CC3)n2)cc1,"inconclusive: 25.1 µM [inhibitor, partial curve]",–
O=S(=O)(Nc1ccc(O)c2ccccc12)c1ccc(F)cc1,"inconclusive: 44.7 µM [inhibitor, partial curve, poor fit]",–
c1cncc(-c2nc(NCCCn3ccnc3)c3ccccc3n2)c1,–,inactive: 21.3%
O=C(N/N=C/c1ccccn1)c1cc(-c2ccc3ccccc3c2)n[nH]1,"inconclusive: 79.4 µM [inhibitor, partial curve]",–

Structure (SMILES),Potency,"activity change, negative = inhibition"
CC(C)(C)c1ccc(S(=O)(=O)N2CCN(c3ncccn3)CC2)cc1,"inconclusive: 89.1 µM [inhibitor, single point]",–
CCCS(=O)(=O)N1CCN(C2Cc3ccccc3C2)CC1,"inconclusive: 17.8 µM [inhibitor, full curve]",–
C=CCn1c(=N)n(CC(O)COc2ccccc2OC)c2ccccc21 (stereo not drawn),–,inactive: 29.8%
O=C(CS(=O)(=O)Cc1ccccc1)Nc1nc2c(s1)CCCC2,–,inactive: 33.1%
O=C(CN1c2ccccc2Sc2ccccc21)N/N=C/c1ccc([N+](=O)[O-])cc1,"inconclusive: 44.7 µM [inhibitor, partial curve]",–
Cc1cc(C)c2nc(NC(=O)C3CC(=O)N(Cc4ccco4)C3)sc2c1 (stereo not drawn),"inconclusive: 79.4 µM [inhibitor, partial curve]",–
CC(C)NC[C@@H](O)c1ccc(O)c(O)c1,"inconclusive: 28.2 µM [inhibitor, partial curve]",–
CC(Sc1nnc(Cc2ccccc2)n1C)C(=O)NC1CC1 (stereo not drawn),–,inactive: 35.8%
COc1cc2c(cc1OC)CN(Cc1cccs1)CC2,"inconclusive: 56.2 µM [inhibitor, partial curve, poor fit]",–
Cc1cccc(Oc2ccc(NC(=O)CCC(=O)OCC(=O)c3ccc(Br)cc3)cc2)c1C,–,inactive: 5.45%
O=C(COc1ccccc1[N+](=O)[O-])Nc1ccc(N2CCN(C(=O)c3cccs3)CC2)cc1,"inconclusive: 39.8 µM [inhibitor, partial curve]",–
O=C(Cc1c(F)cccc1Cl)Nc1ccc(S(=O)(=O)Nc2nccs2)cc1,"inconclusive: 89.1 µM [inhibitor, single point]",–
COc1ccc(/C=C2\C(=O)N(c3c(Cl)cc(Cl)cc3Cl)N=C2NC(=O)c2cccc([N+](=O)[O-])c2)cc1,"inconclusive: 39.8 µM [inhibitor, partial curve]",–
CCOc1ccccc1C(C(=O)NC1CCCC1)N(C(=O)c1csnn1)C1CC1 (stereo not drawn),–,inactive: 1.46%
Cc1cc(NC(=O)CN2CCN(c3ncccn3)CC2)no1,"inconclusive: 89.1 µM [inhibitor, partial curve, poor fit]",–
O=C(O)C1CSC2(CCN(Cc3ccccc3)CC2)N1 (stereo not drawn),"inconclusive: 79.4 µM [inhibitor, single point]",–
Cc1ccccc1NC(=O)CSc1nnc(-c2ccco2)c(-c2ccco2)n1,active: 15.8 µM,–
COc1cc(OC)c(NC(=O)CCNS(=O)(=O)c2ccc3c(c2)oc(=O)n3C)cc1Cl,"inconclusive: 89.1 µM [inhibitor, single point]",–
CCOC(=O)C1=CN(Cc2cccc(-c3ccc(Cl)nc3)c2)S(=O)(=O)N(C)C1C (stereo not drawn),–,inactive: 63.4%
Cc1ccc(N2CCN(CC(O)COc3cccc4ccccc34)CC2)cc1 (stereo not drawn),"inconclusive: 50.1 µM [inhibitor, partial curve]",–
Cc1ccc(-c2csc(NC(=O)CCCc3cccs3)n2)cc1,–,inactive: 5.5%
CC1CCCN(CCCOc2ccc(Cl)cc2Br)C1 (stereo not drawn),"inconclusive: 14.1 µM [inhibitor, partial curve, poor fit]",–
Cc1cccc(C2c3[nH]c4ccccc4c3CCN2C(=O)c2cc(-c3cccn3C)n[nH]2)n1 (stereo not drawn),"inconclusive: 39.8 µM [inhibitor, partial curve]",–

Structure (SMILES),Potency,"activity change, negative = inhibition"
Cc1ccnc(N=O)c1,"inconclusive: 28.2 µM [inhibitor, full curve]",–
COc1ccc(C(=O)N2CCN(c3nc4c(C)c(Cl)ccc4s3)CC2)c(OC)c1,–,inactive: -1.82%
O=C(c1cccc(F)c1)N1CCN(c2cc(N3CCCCC3)c(F)cc2[N+](=O)[O-])CC1,"inconclusive: 20 µM [inhibitor, partial curve, poor fit]",–
O=c1[nH]c2cc3c(cc2cc1CN(CCCO)C(=S)NCc1ccco1)OCO3,"inconclusive: 8.91 µM [inhibitor, full curve]",–
CCOc1ccc(S(=O)(=O)N2CCN(C(=O)c3ccc(-n4cncn4)c([N+](=O)[O-])c3)CC2)cc1,–,inactive: 17.1%
Cc1ccc(NC(=O)Cn2c(=O)ccc3cc(S(=O)(=O)N4CCCC4)ccc32)cc1N(C)C,–,inactive: 25.4% [at 57 µM]
CC(C)NCc1cccc([N+](=O)[O-])c1,"inconclusive: 31.6 µM [inhibitor, partial curve]",–
C/C(=N\NC(=O)c1ccc([N+](=O)[O-])cc1)c1cc2ccccc2oc1=O,–,inactive: 4.7%
O=C(C=Cc1ccccc1O)c1ccccc1O,"inconclusive: 50.1 µM [inhibitor, partial curve]",–
O=C1C(NS(=O)(=O)c2ccc(Cl)cc2)=C(N2CCCCC2)C(=O)c2ccccc21,"inconclusive: 10 µM [inhibitor, full curve, poor fit]",–
CC(C)c1ccc2[nH]c3nc(SCC(=O)NC4CC4)nnc3c2c1,"inconclusive: 89.1 µM [inhibitor, single point]",–
Cc1ccccc1NC1c2ccccc2C(=O)N1Cc1ccco1 (stereo not drawn),–,inactive: 16.4%
Cc1cccc(OCC(=O)Nc2ccccc2C(=O)OCc2cc(=O)n3nc(C4CC4)sc3n2)c1,–,inactive: 27.2%
COc1cccc(CNc2ccc3[nH]c(=O)[nH]c3c2)c1OCc1ccc(F)cc1,"inconclusive: 39.8 µM [inhibitor, partial curve]",–
CC1(C)C(=O)Nc2ccccc2N1C(=O)COc1ccc(C#N)cc1,–,inactive: 3.06%
CCn1cc(C(=O)Nc2ccc(C(C)C)cc2)c2cc(OC)c(OC)cc2c1=O,–,inactive: 36.9%
O=S(=O)(Nc1cccc(-c2cn3c(n2)SCC3)c1)c1ccc(F)cc1F,"inconclusive: 70.8 µM [inhibitor, partial curve]",–
S=C(Nc1ccccc1)Nc1ccc2cn[nH]c2c1,–,inactive: 22%
Cc1ccc(C(C(=O)NC2CCCCC2)N(C(=O)c2csnn2)c2ccccc2F)o1 (stereo not drawn),"inconclusive: 89.1 µM [inhibitor, partial curve, poor fit]",–
Cc1ccccc1Nc1scc(-c2ccc(Br)cc2)[n+]1-c1ccccc1C,"inconclusive: 11.2 µM [inhibitor, full curve]",–
COc1ccc(N2CCN(Cc3nc(N)nc(N4CCCc5ccccc54)n3)CC2)cc1,"inconclusive: 44.7 µM [inhibitor, partial curve]",–
O=C(C1CC1)N1CCN(c2ccc(O)cc2)CC1,"inconclusive: 89.1 µM [inhibitor, single point]",–

# From PubChem BioAssay AID540317 (National Center for Advancing Translational Sciences (NCATS), 2011)
